Measurements taken from patent US20190194350A1 (UNIVERSITAT STUTTGART, published 2019).
Each block holds one binder with its values, some of them ahead of it.

Legend:
[1] = molecular target: T1, HER3-His (HER3 aa 27-599 of the extracellular domain fused C-terminally with a hexahistidyl-tag) (human, UniProt P21860 in part); assay: ELISA, coated HER3-His
T1 construct: also called soluble His-tagged HER3; His-tagged extracellular domain of HER3; not shown: C-terminal hexahistidyl-tag

[2] = molecular target: T2, HER3 on HER3-expressing tumor cells (human, UniProt P21860 20-1342); assay: flow cytometry, FaDu cells (carry HER2 and HER3; bispecific, number not split between the two targets)
T2 construct: Endogenous HER3 of human tumor cell lines (MCF-7, FaDu, BT474, A431, NCI-N87, A549, SKBR-3, Colo205, HCT-116, A375 and melanoma lines); also called cellular receptor HER3; cell surface expressed HER3

[3] = molecular target: T2, HER3 on HER3-expressing tumor cells; assay: flow cytometry, HER3-positive A375 cells, anti-human IgG R-PE
[4] = molecular target: T2, HER3 on HER3-expressing tumor cells; assay: cell-based or functional assay
[5] = molecular target: T3, TRAIL-R2 on Colo205 and HCT-116 cells (UniProt O14763 56-440, limits assumed); assay: flow cytometry on Colo205 cells, which express HER3 and TRAIL receptors; the signal is not separated between the two targets
T3 construct: whole, on cells; also called cell surface expressed TRAIL-R2

[6] = molecular target: T2, HER3 on HER3-expressing tumor cells; assay: cell-based or functional assay; remark: listed apart in the source
HER3-ECD protein = molecular target: T4, HER3-ECD protein (Homo sapiens (Human), UniProt P21860 in part); assay: ELISA, immobilized HER3-ECD
T4 construct: also called receptor-ECD protein

HER2-ECD protein = molecular target: T5, HER2-ECD protein (UniProt P04626 in part, limits assumed); assay: ELISA, immobilized HER2-ECD
T5 construct: extracellular domain

[7] = molecular target: T6, HER3-Fc fusion comprising the extracellular domain (aa 27-599) of human HER3 (human, UniProt P21860 in part); assay: ELISA, coated HER3-Fc (aa 27-599), anti-His-HRP
T6 construct: also called HER3-Fc fusion protein; not shown: Fc part

B3: scDb 2-35x3-43-Fc (bispecific antibody)
chain: QLVQSGAEVKKPGESLKISCKGSGYSFTSYWIGWVRQMPGKGLEWMGIIYPGDSDTRYSPSFQGQVTISADKSISTAYLQWSSLKASDTAMYYCARLGRSGSYYNYGMDVWGQGTTVTVSSGGGGSQAGLTQPPAVSVAPGQTASITCGRDNIGSRSVHWYQQKPGQAPVLVVYDDSDRPAGIPERFSGSNYENTATLTISRVEAGDEADYYCQVWGITSDHVVFGGGTKLTVLGGGGSGGRASGGGGSQVQLQQSGPGLVKPSQTLSLTCAISGDSVSSNRAAWNWIRQSPSRGLEWLGRTYYRSKWYNDYAQSLKSRITINPDTPKNQFSLQLNSVTPEDTAVYYCARDGQLGLDALDIWGQGTMVTVSSGGGGSQAVVTQEPSFSVSPGGTVTLTCGLSSGSVSSSYYPSWYQQTSGQPPRTLIYSTDTRSSGVPDRFSGSILGDKAALTITGAQADDESDYYCMLYMGSGISVFGGGTKLAVLAAAGGSGG[no letters for human IgG1 Fc]
notes: also called 2-35 x 3-43 scDb-Fc; scDb-Fc
- EC50 (HER3-ECD protein): 0.24 nM
- EC50 (HER2-ECD protein): ~1.5 nM

B4: scDb4D5x3-43-LL (bispecific antibody)
chain: DAAQPAMA[no letters for about 120 residues]GGGGSQAGLTQPPAVSVAPGQTASITCGRDNIGSRSVHWYQQKPGQAPVLVVYDDSDRPAGIPERFSGSNYENTATLTISRVEAGDEADYYCQVWGITSDHVVFGGGTKLTVLGGGGSGGRASGGGGSGGGGSQVQLQQSGPGLVKPSQTLSLTCAISGDSVSSNRAAWNWIRQSPSRGLEWLGRTYYRSKWYNDYAQSLKSRITINPDTPKNQFSLQLNSVTPEDTAVYYCARDGQLGLDALDIWGQGTMVTVSSGGGGS[no letters for about 120 residues]
notes: Bivalent: one site for HER2 (4D5), one for HER3 (3-43); purified by IMAC and detected by anti-His antibody
- EC50 [7]: 0.93 nM

Further lines, with some results ahead:

- EC50 [1]: 1.9 nM
- EC50 [2]: 2.9 nM
B1: scDb 4D5x3-43-Fc (bispecific antibody)
chain: [no letters for about 120 residues]GGGGSQAGLTQPPAVSVAPGQTASITCGRDNIGSRSVHWYQQKPGQAPVLVVYDDSDRPAGIPERFSGSNYENTATLTISRVEAGDEADYYCQVWGITSDHVVFGGGTKLTVLGGGGSGGRASGGGGSGGGGSQVQLQQSGPGLVKPSQTLSLTCAISGDSVSSNRAAWNWIRQSPSRGLEWLGRTYYRSKWYNDYAQSLKSRITINPDTPKNQFSLQLNSVTPEDTAVYYCARDGQLGLDALDIWGQGTMVTVSSGGGGS[no letters for about 100 residues]RAAAGGSGG[no letters for human IgG1 Fc]
notes: also called scDb 4D5x3-43-LL-Fc; scDb-Fc

- EC50 [3]: 1.19 nM
- binding result [5]: binds
B2: scFv3-43-Fc-scTRAIL (other)
chain: KDDDDKGGGGSGTQVQLQQSGPGLVKPSQTLSLTCAISGDSVSSNRAAWNWIRQSPSRGLEWLGRTYYRSKWYNDYAQSLKSRITINPDTPKNQFSLQLNSVTPEDTAVYYCARDGQLGLDALDIWGQGTMVTVSSGGGGSGGGGSGGGGSQAGLTQPPAVSVAPGQTASITCGRDNIGSRSVHWYQQKPGQAPVLVVYDDSDRPAGIPERFSGSNYENTATLTISRVEAGDEADYYCQVWGITSDHVVFGGGTKLTVLAAAGGSGG[no letters for human IgG1 Fc]GGSGGGSSGGGPQRVAAHITGTRGRSNTLSSPNSKNEKALGRKINSWESSRSGHSFLSNLHLRNGELVIHEKGFYYIYSQTYFRFQEEIKENTKNDKQMVQYIYKYTSYPDPILLMKSARNSCWSKDAEYGLYSIYQGGIFELKENDRIFVSVTNEHLIDMDHEASFFGAFLVGGGPQRVAAHITGTRGRSNTLSSPNSKNEKALGRKINSWESSRSGHSFLSNLHLRNGELVIHEKGFYYIYSQTYFRFQEEIKENTKNDKQMVQYIYKYTSYPDPILLMKSARNSCWSKDAEYGLYSIYQGGIFELKENDRIFVSVTNEHLIDMDHEASFFGAFLVGGGPQRVAAHITGTRGRSNTLSSPNSKNEKALGRKINSWESSRSGHSFLSNLHLRNGELVIHEKGFYYIYSQTYFRFQEEIKENTKNDKQMVQYIYKYTSYPDPILLMKSARNSCWSKDAEYGLYSIYQGGIFELKENDRIFVSVTNEHLIDMDHEASFFGAFLVG
notes: Dimeric through the Fc part; also called anti-HER3 scFv-Fc-scTRAIL fusion protein
- cell death induction, A375, +BZB (EC50) [4]: 0.72 pM
- cell death induction, MeWo, +BZB (EC50) [4]: 4.63 pM
- cell death induction, Mel-Juso, +BZB (EC50) [4]: 1 pM
- cell death induction, WM35, +BZB (EC50) [4]: 0.17 pM
- cell death induction, WM35, -BZB (EC50) [4]: 4.96 pM
- cell death induction, WM793, +BZB (EC50) [4]: 0.39 pM
- cell death induction, WM793, -BZB (EC50) [4]: 4.25 pM
- cell death induction, WM1366, +BZB (EC50) [4]: 3.58 pM
- cell death induction, WM1366, -BZB (EC50) [4]: 48.2 pM
- cell death induction on Colo205, w/o blocking antibody, 650 nM BZB (EC50) [6]: 6.7 pM
- cell death induction on Colo205, w/o blocking antibody, w/o BZB (EC50) [6]: 31 pM
- cell death induction on Colo205, with blocking antibody scFv3-43-Fc (200x molar excess), 650 nM BZB (EC50) [6]: 32.6 pM
- cell death induction on Colo205, with blocking antibody scFv3-43-Fc (200x molar excess), w/o BZB (EC50) [6]: 218 pM
